Measurements published in patent publication US9234186B2, “Star-worm luciferase” (OLYMPUS CORPORATION, priority 2011, dated 2016).

Test system: HeLa cell
Assay: Luminous intensity expressed in HeLa cell, star-worm mutant vs wild-type luciferase (Example 4)
Settings: 2 mM D-luciferin, 37° C., 90 minutes, normalised to sea pansy luciferase internal control, codon-optimized gene with Kozak sequence

B1: star-worm mutant luciferase: Star-worm luciferase in which cysteine at position 344 of SEQ ID NO: 1 is substituted by serine (protein, listed as Diplocladon sp.)
chain: MPNEIVLHGAKPRDPLDLGTAGSQLFRSLTQFSYLREALVDAHTEQVVSYADILENSCRLAICFEKYGLRQNSVIAVCSENSAIFFYPVIAALYMGIITATVNDNYTERELFDTLNISKPELVFCSKKAIKNLTQLKNHIDFIKKLVVLDSDEDIGEVESLANFMKRYSESVIDVRNFKPRDFDAKEQVALIMSSSGTTGLPKGVVLTHRNLSVRFVHCKDPLFGTRTVPSTSILSIVPFHHAFGMFTTLSYFIVGLRVILLKRFEEEFFLSTIEKYRIPTIVLAPPVMVFLAKSPLVDQYDVSSIREVATGGAPVGIEVAEAVAKRLKINGILQGYGLTETCSAVLITPHDHVKTGSTGKVAPYVQAKVVDLSTGKSLGPNKRGELCFKSEIIMKGYFNNIKATEEAIDKEGWLHSGDVGYYDEDGHFYVVDRLKELIKYKGYQVAPAELEWLLLQHPAIKDAGVTGVPDEAAGELPGACIVLEEGHSLTEQEVIEYVAERVSPTKRIRGGVVFVDDIPKGATGKLVRSELRRMLSQKKSKL
luminous intensity relative to that induced by the star-worm wild-type luciferase: 4.9 times
